“Also recorded” adds a separate entry of the source.
Legend:
[1] = test system: inoperable metastatic gastric cancer; assay: Tumor biopsies of patients treated with AB-16B5 as single agent, gastric cancer; assay type: in vivo, human; details: biopsy after the second cycle, H&E, FIG. 2E
Procedure: (§1) In parallel human tumor biopsies of patients treated with AB-16B5 (humanized 16B5) as single agent were analyzed (FIGS. 2B-2E). Needle biopsies obtained from a patient with metastatic thyroid cancer and form a patient with inoperable metastatic gastric cancer were sectioned and stained with hematoxylin and eosin. An on-treatment biopsy from a patient with thyroid cancer metastasic to the lungs was obtained after the second cycle treatment with AB-16B5. […] Hemosiderin-laden macrophages were observed inside necrotic areas some reflecting red blood cell extravasation associated with necrosis (not shown).

[2] = test system: thyroid cancer metastasic to the lungs; assay: Tumor biopsies of patients treated with AB-16B5 as single agent, thyroid cancer; assay type: in vivo, human; details: biopsy after the second cycle, H&E, FIG. 2B
Procedure: as §1

B1: humanized 16B5: humanized anti-clusterin antibody (light chain SEQ ID NO:11, heavy chain SEQ ID NO:12), used in patients (antibody)
heavy: QVQLVQSGAEVKKPGATVKISCKVSGFNIKDIYMHWVQQAPGKGLEWMGRIDPAYGNTKYDPKFQGRVTITADTSTDTAYMELSSLRSEDTAVYYCARRYDTAMDYWGQGTLVTVSSASTKGPSVFPLAPCSRSTSESTAALGCLVKDYFPEPVTVSWNSGALTSGVHTFPAVLQSSGLYSLSSVVTVPSSNFGTQTYTCNVDHKPSNTKVDKTVERKCCVECPPCPAPPVAGPSVFLFPPKPKDTLMISRTPEVTCVVVDVSHEDPEVQFNWYVDGVEVHNAKTKPREEQFNSTFRVVSVLTVVHQDWLNGKEYKCKVSNKGLPAPIEKTISKTKGQPREPQVYTLPPSREEMTKNQVSLTCLVKGFYPSDIAVEWESNGQPENNYKTTPPMLDSDGSFFLYSKLTVDKSRWQQGNVFSCSVMHEALHNHYTQKSLSLSPGK
light: DIVMTQSPDSLAVSLGERATINCKSSQSLLNSRTRKNYLAWYQQKPGQPPKLLIYWASTRESGVPDRFSGSGSGTDFTLTISSLQAEDVAVYYCKQSYNLWTFGQGTKLEIKVAAPSVFIFPPSDEQLKSGTASVVCLLNNFYPREAKVQWKVDNALQSGNSQESVTEQDSKDSTYSLSSTLTLSKADYEKHKVYACEVTHQGLSSPVTKSFNRGEC
modifications: Humanized 16B5 heavy chain; Humanized 16B5 light chain
For B1, the “immune infiltrate in on-treatment biopsy” value [1] was “infiltrated by a mix neutrophilic and mononucleated immune cells infiltrate”, the “tumor necrosis in on-treatment biopsy” value [2] was “essentially all tumor fragments were necrotic” and the “immune infiltrate in on-treatment biopsy” value ([2]; 2C) was “lymphoplasmacytic infiltrate was observed along the edge of the fragment; also recorded: perivascular infiltrate composed of plasma cells along the edge of tumor fragment”.

— patent publication US20240207311A1, “TUMOR INFILTRATING LYMPHOCYTES THERAPY” (Alethia Biotherapeutics Inc., priority 2021, published 2024)
